# Measurements as given in patent publication US20140024596A1, “DISEASE INHIBITING AGENT” (NITTA GELATIN INC., priority 2010, published 2014).
# Not every detail of the peptide structures is certain; ends, links or a residue may be inferred. Marks after values point to notes of the source that are not given here. Some entries repeat one wording, which the source may state once for all of them. Non-standard residues stand in square brackets, D forms with d. Residues, ends and D or L forms follow the SMILES beside them. Hyp = O=C(O)[C@@H]1C[C@@H](O)CN1
# Assays:
# [1] = tested on: femur-tibia joint of C57BL/6J mice (C group); assay: Evaluation Test 7: injection into femur-tibia joint space of C group mice, pathological evaluation; assay type: in vivo, mouse; conditions: n = 4
# [2] = tested on: osteoclast (precursor cells of osteoclasts and bone marrow stromal cells on ivory piece); assay: Evaluation Test 1: Pit assay, osteoclast cultured on ivory piece; assay type: cell-based, mouse; conditions: control (blank) = 100, n = 6; for Relative number of TRAP-positive multinucleated giant cells (osteoclasts) by cultivation on ivory piece (%): cultured about 1 week on ivory piece; for Relative number of Pit (%): resorption cavities on ivory piece, about 1 week
# Protocol: Further, the inhibition degree of differentiation and activation of osteoclast by each of the peptide molecules, and amino acids was evaluated by the following Pit assay. In brief, the Pi assay in which osteoclast is cultured on an ivory piece was conducted in conformance with Kakudo S, et al J. Bone Miner. Metab. (1996) 14: 129-136. The concrete procedure is as follows. […] Then, after removing the cells from the ivory piece with a silicone rubber policeman, the ivory piece was stained with an acid hematoxylin solution for several minutes. At this time, the number of TRAP staining positive multinucleated giant cells (osteoclast) was counted by TRAP staining, and a relative number with respect to the number of cells in control (blank) was calculated. Then, the Pit number (number of resorption cavity) by osteoclast was counted under a microscope, and the degree of inhibiting osteoclast by each peptide to be tested was indicated by a relative ratio to blank (control).
# [3] = tested on: luciferase in bone metastatic focus of human prostate cancer cell strain PC-3M (PC-3M-lu); assay: Examples 28-36: co-administration, carrier intragastric then GL3siRNA tail vein, bone metastasis model; assay type: in vivo, nude mouse; conditions: co-administration: 0.1 g carrier intragastric, GL3siRNA tail vein after 30 minutes, n = 3
# [4] = tested on: osteoclast (mouse primary bone marrow cell culture); assay: Evaluation Test 1: osteoclast differentiation culture on plastic dish (TRAP-positive multinucleated giant cells); assay type: cell-based; conditions: final concentration 625 μM, 6 days culture, control (blank) = 100, n = 6
# Protocol: Evaluation was made in conformance with an osteoclast differentiation culture method by Kobayashi Y. et al. [J. Bone Miner. Metab. (2004) 22: p. 318-328]. […] As a control, TRAP inhibiting activity when no peptide was added (blank) was also examined.
# [5] = tested on: femur-tibia joint of C57BL/6J mice; assay: Evaluation Test 6: oral feed, femur-tibia joint evaluation (micro CT, hematoxylin sections); assay type: in vivo, mouse; conditions: oral feed with peptide and potassium phosphate, three weeks; for Relative thickness of articular cartilage: n = 4, N group 1.0
# [6] = tested on: luciferase in bone metastatic focus of human prostate cancer cell strain PC-3M (PC-3M-lu); assay: Examples 19-27: GL3siRNA complex with carrier, tail vein, bone metastasis model, IVIS luciferase imaging; assay type: in vivo, nude mouse; conditions: GL3siRNA mixed with carrier (synthetic peptide 10 μM) as complex, n = 3
# [7] = tested on: Male Wistar rat, skin wound; assay: Evaluation Test 4: recovery of tropocollagen amount in dermis of skin after depilatory skin wound; assay type: in vivo; conditions: feed plus intragastric administration, n = 4
# [8] = After 1 week from injection of 5 mmol/L solution (0.5 mL) into joint space
# [9] = After 3 weeks from injection of 5 mmol/L solution (0.5 mL) into joint space
# [10] = 0 day after depilatory treatment
# [11] = 1 day after depilatory treatment
# [12] = 2 days after depilatory treatment
# [13] = 4 days after depilatory treatment
Compound,"Pathological score (articular cartilage part) [1, 8]","Relative thickness of articular cartilage [1, 8]",Characteristic pathological finding in joint cancellous bone part in comparison with N group ([1]; After 1 week from injection),"Pathological score (articular cartilage part) [1, 9]","Relative thickness of articular cartilage [1, 9]",Characteristic pathological finding in joint cancellous bone part in comparison with N group ([1]; After 3 weeks from injection),Relative number of TRAP-positive multinucleated giant cells (osteoclasts) by cultivation on ivory piece (%) [2] [%],Relative number of Pit (%) [2] [%],Luciferase expression ratio in bone after 28 days from administration (%) [3] [%],Relative area of TRAP-positive multinucleated giant cells (osteoclasts) by cultivation on plastic dish (%) [4] [%],Relative number of TRAP-positive multinucleated giant cells (osteoclasts) by cultivation on plastic dish (%) [4] [%],Characteristic pathological finding in joint cancellous bone part in comparison with N group ([5]; n = 4),Pathological score (articular cartilage part) ([5]; n = 4),Relative thickness of articular cartilage [5],Luciferase expression ratio in bone after 28 days from administration (%) [6] [%],"Skin collagen amount in skin wound recovery process (ratio of tropocollagen to total collagen amount)(%) [7, 10]","Skin collagen amount in skin wound recovery process (ratio of tropocollagen to total collagen amount)(%) [7, 11]","Skin collagen amount in skin wound recovery process (ratio of tropocollagen to total collagen amount)(%) [7, 12]","Skin collagen amount in skin wound recovery process (ratio of tropocollagen to total collagen amount)(%) [7, 13]"
"NCC(=O)N1CCC[C@H]1C(=O)N1C[C@H](O)C[C@H]1C(=O)NCC(=O)N1CCC[C@H]1C(=O)N1C[C@H](O)C[C@H]1C(=O)NCC(=O)O [G(POG)2, Gly-(Pro-Hyp-Gly)2] (H-GP[Hyp]GP[Hyp]G-OH; N-terminus and C-terminus assumed)",0.6 ± 0.04,0.7 ± 0.2,a),0.3 ± 0.04,0.9 ± 0.1,b),16 ± 5,18 ± 3,29 ± 1.1,10 ± 3,11 ± 3,Same as on the left.,0.4 ± 0.2,0.8 ± 0.2,27 ± 0.8,2.2 ± 0.2^b %,2.5 ± 0.1^c %,2.8 ± 0.2^c %,4.5 ± 0.2^d %
N=C(N)NCCC[C@H](NC(=O)CNC(=O)[C@@H]1CCCN1C(=O)[C@H](CCCCN)NC(=O)CNC(=O)[C@@H]1CCCN1C(=O)[C@H](Cc1c[nH]cn1)NC(=O)CNC(=O)[C@H](CC(=O)O)NC(=O)[C@H](CCCCN)NC(=O)[C@@H](N)CCC(=O)O)C(=O)N1C[C@H](O)C[C@H]1C(=O)NCC(=O)N[C@@H](CCC(=O)O)C(=O)O [EKDGHPGKPGROGE] (H-EKDGHPGKPGR[Hyp]GE-OH),0.5 ± 0.05,0.8 ± 0.3,a),0.2 ± 0.04,1.0 ± 0.2,b),13 ± 4,10 ± 4,27 ± 0.9,10 ± 5,11 ± 6,–,0.2 ± 0.07,0.9 ± 0.1,16 ± 0.3,2.5 ± 0.1^b %,2.7 ± 0.3^b %,3.1 ± 0.3^c %,5.2 ± 0.2^d %
